Assay [1] concerns the target GluN2A, endogenous in adult rat brain (rat (endogenous in adult rat brain)) (UniProt Q00959). The assay can be described thus: co-IP; adult rat brain (minus cerebellum) P2 membrane fraction, 1% sodium deoxycholate 100,000×g extract; precipitated with anti-GluN1 C2 or non-immune rabbit Ig for 16 h at 4 °C; immunoblots. For orientation: In western blotting, separated proteins are transferred to a membrane and probed.

Sequences of proteins named here, by UniProt entry; tags and fusion partners are left off. Residues count along the entry.
GluN2A 838–1464 (C-terminal tail) (Q00959, residues 838-1464): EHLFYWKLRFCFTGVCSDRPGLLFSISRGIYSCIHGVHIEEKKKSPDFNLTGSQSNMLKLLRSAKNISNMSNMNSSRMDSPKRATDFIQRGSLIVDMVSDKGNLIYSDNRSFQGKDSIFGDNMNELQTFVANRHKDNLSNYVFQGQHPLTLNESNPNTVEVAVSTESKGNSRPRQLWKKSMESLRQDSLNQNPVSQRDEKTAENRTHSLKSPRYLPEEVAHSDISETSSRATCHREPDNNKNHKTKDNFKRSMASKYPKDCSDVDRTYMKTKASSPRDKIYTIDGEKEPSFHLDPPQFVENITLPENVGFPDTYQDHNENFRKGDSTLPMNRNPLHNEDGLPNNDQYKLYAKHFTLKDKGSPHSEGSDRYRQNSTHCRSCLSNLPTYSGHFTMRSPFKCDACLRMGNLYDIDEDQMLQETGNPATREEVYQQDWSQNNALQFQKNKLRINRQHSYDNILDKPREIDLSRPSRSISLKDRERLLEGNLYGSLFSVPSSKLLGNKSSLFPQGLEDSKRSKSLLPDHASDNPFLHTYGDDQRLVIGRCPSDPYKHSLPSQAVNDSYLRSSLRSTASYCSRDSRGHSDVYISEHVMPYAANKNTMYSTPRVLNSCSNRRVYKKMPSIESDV
GluN2A 838–1382 (Q00959, residues 838-1382): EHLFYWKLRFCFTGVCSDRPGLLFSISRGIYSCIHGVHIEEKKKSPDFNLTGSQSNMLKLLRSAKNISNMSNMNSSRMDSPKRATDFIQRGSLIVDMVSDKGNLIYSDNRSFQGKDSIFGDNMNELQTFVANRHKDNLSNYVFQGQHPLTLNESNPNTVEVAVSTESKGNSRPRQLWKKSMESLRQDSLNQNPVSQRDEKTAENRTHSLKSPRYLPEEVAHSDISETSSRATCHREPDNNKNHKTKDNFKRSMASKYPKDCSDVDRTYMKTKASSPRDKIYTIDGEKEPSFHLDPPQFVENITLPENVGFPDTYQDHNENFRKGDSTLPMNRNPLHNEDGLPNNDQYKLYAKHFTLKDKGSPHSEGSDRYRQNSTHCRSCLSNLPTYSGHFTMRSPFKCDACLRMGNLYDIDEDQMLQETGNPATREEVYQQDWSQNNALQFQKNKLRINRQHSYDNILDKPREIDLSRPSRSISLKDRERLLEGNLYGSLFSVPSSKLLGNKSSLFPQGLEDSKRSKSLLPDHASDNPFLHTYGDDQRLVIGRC
GluN2A 838–1157 (Q00959, residues 838-1157): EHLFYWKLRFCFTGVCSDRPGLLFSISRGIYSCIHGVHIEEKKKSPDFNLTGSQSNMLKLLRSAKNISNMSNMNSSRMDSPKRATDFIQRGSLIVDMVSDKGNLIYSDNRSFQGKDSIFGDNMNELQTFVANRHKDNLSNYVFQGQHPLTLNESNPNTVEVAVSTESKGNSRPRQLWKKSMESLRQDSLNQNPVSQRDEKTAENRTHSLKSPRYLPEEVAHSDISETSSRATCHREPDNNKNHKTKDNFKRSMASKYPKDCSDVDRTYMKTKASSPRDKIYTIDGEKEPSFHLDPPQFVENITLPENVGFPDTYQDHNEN
GluN2D 864–1323 (intracellular C-terminal domain) (Q62645, residues 864-1323): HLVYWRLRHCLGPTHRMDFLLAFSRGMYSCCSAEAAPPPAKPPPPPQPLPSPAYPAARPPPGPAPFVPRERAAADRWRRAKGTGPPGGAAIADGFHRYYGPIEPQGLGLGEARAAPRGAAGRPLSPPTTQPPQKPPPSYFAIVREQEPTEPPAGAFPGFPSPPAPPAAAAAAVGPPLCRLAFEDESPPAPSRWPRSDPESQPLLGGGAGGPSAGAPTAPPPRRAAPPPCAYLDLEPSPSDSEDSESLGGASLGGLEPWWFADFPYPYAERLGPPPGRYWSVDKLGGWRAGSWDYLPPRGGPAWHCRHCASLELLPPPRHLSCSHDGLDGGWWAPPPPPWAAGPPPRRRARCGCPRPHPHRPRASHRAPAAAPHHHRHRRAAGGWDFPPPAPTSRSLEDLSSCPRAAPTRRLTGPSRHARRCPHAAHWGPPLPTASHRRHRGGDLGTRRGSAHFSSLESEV
GluN2D 864–1318 (C-terminal domain lacking the ESEV PSD-95 MAGUK binding domain) (Q62645, residues 864-1318): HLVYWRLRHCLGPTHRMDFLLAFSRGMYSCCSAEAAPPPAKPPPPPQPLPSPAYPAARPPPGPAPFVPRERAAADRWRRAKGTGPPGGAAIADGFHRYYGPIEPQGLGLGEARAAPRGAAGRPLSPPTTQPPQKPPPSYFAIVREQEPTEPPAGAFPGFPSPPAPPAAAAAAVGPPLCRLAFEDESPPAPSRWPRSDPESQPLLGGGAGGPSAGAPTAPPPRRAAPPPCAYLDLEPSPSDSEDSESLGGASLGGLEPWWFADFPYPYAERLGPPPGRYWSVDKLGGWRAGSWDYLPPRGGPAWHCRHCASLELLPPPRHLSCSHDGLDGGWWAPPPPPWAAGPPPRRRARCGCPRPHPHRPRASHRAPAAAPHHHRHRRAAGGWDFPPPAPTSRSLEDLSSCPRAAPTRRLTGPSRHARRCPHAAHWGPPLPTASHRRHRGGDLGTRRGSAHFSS

Assay [2] has as its target GluN1-1a 834–938 (cytoplasmic C-terminal domain) (UniProt P35439). The assay can be described thus: two-hybrid; yeast mating assays: pGBKT7 bait constructs against pGADT7 fish constructs; diploid colonies on -Leu/-Trp/-His/-Ade agar counted after 7 days at 30 °C.
The target of another assay is GluN2A 838–1157 (UniProt Q00959). The description is as above.
Another assay deals with GluN2A 838–1382 (UniProt Q00959). The description is as above.
For assay [3], the target named is GluN2A 838–1464 (C-terminal tail) (UniProt Q00959). Described as above.
For assay [4], the target named is GluN2D 864–1318 (C-terminal domain lacking the ESEV PSD-95 MAGUK binding domain) (UniProt Q62645). Described as above.
The target of assay [5] is GluN2D 864–1323 (intracellular C-terminal domain) (UniProt Q62645). The description is as above.
The target is the same in assay [6]. The assay can be described thus: two-hybrid; screen of a mouse brain cDNA library with the bait pGBKT7GluN2D 864–1323 in AH109 S. cerevisiae; -Leu/-Trp/-His/-Ade plates, 5–7 days at 30 °C, restreaked three times.
Assay [7] deals with GluN2A NMDA receptor subunit expressed in HEK 293 cells (UniProt Q00959). The assay can be described thus: co-IP; HEK 293 cells co-transfected with GluN1/GluN2A/CtBP1^FLAG; 1% Triton X-100 extract (50 mM Tris-citrate pH 7.4, 240 mM NaCl, 5 mM EDTA, 5 mM EGTA); precipitated with anti-GluN1 C2 antibodies or non-immune Ig and protein A Sepharose at 4 °C; immunoblots with anti-GluN1 C2, anti-GluN2A (1381–1394) and anti-FLAG.

The record followed here is paper PMC6525116.

No constants are given. Whether binding was seen depends on the method and setting. For some of these results: In cells and extracts the contact can be indirect. Some binding calls cover weakened binding; strength is not graded here.

Regarding “CtBP1, endogenous in adult rat brain (from UniProt Q9Z2F5 1-430)”, the binding result in [1] is given as “binds”.
For the substance “CtBP1 161–306 (clone 37) (from UniProt O88712 161-306) (domain or fragment)”, the binding result in assay [2] is recorded as “no binding”; with GluN2A 838–1157, “no binding”; in the assay with GluN2A 838–1382, “binds”; in assay [3], “binds”; in [4], “binds”; in assay [5] it was “binds”. Besides, in assay [6], the binding entry is given as “binds”.
For “FLAG-tagged full length CtBP1-I1 (from UniProt O88712 1-441)”, the binding entry in [7] is “binds”.
As to “CtBP1 1–224 (clone 47) (from UniProt O88712 1-224) (domain or fragment)”, the binding entry is listed as “no binding” in assay [2]; “no binding” in the assay with GluN2A 838–1157; “binds” with GluN2A 838–1382; “binds” in [3]; “binds” in assay [4]; “binds” in [5]. Further, the binding entry in assay [6] is listed as “binds”.
